# Hit rate of the full screen: of about 310,000 compounds, about 14,000 (4.5%) showed an effect of 50% or more. The effect is printed as a negative number. Some of the results follow.
# Target: human ether-à-go-go-related gene (hERG) potassium channel (human, UniProt Q12809)
# Assay: primary screen, population patch clamp on CHO cells stably expressing hERG
# 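Note: peak tail current of the secondary pulse compared with the same well before compound.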
# human ether-à-go-go-related gene (hERG) potassium channel, sequence (Q12809 whole entry, looked up): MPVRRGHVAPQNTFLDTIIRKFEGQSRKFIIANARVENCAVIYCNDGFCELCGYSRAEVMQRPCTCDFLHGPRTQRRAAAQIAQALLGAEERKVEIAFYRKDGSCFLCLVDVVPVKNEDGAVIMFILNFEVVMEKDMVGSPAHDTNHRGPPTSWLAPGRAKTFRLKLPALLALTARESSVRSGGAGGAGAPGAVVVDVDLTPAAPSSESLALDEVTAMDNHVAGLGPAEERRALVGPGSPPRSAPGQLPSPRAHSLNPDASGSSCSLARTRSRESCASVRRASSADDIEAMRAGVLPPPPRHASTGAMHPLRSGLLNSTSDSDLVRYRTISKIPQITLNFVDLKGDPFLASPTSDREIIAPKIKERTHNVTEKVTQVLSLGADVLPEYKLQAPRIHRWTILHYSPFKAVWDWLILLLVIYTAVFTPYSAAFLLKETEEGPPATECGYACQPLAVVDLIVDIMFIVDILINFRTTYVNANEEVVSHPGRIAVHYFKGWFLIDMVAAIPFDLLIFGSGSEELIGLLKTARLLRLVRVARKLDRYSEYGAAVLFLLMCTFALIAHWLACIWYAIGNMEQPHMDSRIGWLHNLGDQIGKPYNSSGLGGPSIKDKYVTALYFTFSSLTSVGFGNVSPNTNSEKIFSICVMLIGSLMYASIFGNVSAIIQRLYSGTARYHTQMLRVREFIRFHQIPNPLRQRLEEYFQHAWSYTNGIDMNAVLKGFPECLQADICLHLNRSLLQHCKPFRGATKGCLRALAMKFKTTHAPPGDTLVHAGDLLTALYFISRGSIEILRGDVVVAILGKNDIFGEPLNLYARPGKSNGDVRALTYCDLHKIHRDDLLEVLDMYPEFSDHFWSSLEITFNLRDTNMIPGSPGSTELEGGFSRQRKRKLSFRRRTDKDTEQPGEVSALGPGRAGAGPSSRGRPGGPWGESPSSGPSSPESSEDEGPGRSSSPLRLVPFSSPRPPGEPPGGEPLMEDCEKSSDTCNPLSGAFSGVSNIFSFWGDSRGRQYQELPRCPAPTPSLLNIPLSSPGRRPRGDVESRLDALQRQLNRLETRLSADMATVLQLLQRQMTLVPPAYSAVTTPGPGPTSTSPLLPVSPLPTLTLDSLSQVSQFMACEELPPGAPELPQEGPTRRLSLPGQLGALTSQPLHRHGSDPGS
row,SMILES,"hERG current change (%, negative = inhibition) at 10uM [%]"
1,C[N+](C)(C)C(Cc1ccccc1)C(=O)[O-] (stereo not drawn),10.2
2,CN(CC1CCCO1)S(=O)(=O)c1ccc(C(=O)Nc2ccc([N+](=O)[O-])cc2)cc1 (stereo not drawn),-22.2
3,N#CCCN(C(=O)COC(=O)Cc1ccc(Br)cc1)c1ccccc1,-14.1
4,CCc1nc(SCc2ccc([N+](=O)[O-])cc2)n[nH]1,-7.6
5,O=C(Nc1nnc(COc2ccc(F)cc2)s1)c1ccco1,-4.54
6,Cc1cccc(C)c1NC(=O)COC(=O)c1ccc([N+](=O)[O-])o1,11.5
7,COC(=O)c1c(-c2ccccc2OC)sc2ccccc12,4.01
8,Cc1cc(C)c(S(=O)(=O)N2CCC(C(=O)OCc3c(C)noc3C)CC2)c(C)c1,-22.6
9,CCCCSc1nc(N)c(C#N)c(-c2cccs2)c1C#N,5.08
10,Cc1nc(-c2ccc(Cl)cc2)sc1C1(C)CC(c2ccncc2)=NO1 (stereo not drawn),-14.1
11,CCn1c(SCCN2CCCCC2)nnc1-c1ccc(S(=O)(=O)N2CCOCC2)cc1.O=C(O)C(=O)O,-6.13
12,CN(C)S(=O)(=O)c1ccc(C(=O)NCC(C)(C)CN=C2NS(=O)(=O)c3ccccc32)cc1,2.11
13,COC(=O)c1cccc(NC(=S)Nc2ccccc2Cl)c1,-3.48
14,Cc1ccc(OCC(=O)N[C@@H](C)c2nnc3ccccn23)cc1C,3.89
15,CCCc1cc(=O)oc2c(C)c(OC(C)C(=O)NCC(O)c3ccccc3)ccc12 (stereo not drawn),-36.3
16,CCCNC(=O)C12CCC(C)(C(=O)C1Br)C2(C)C (stereo not drawn),-2.81
17,Cc1ccc(N(CC(=O)Nc2ccc3c(c2)OCCO3)S(C)(=O)=O)cc1,0.681
18,CN1CCc2nc(SCc3ccc(C(C)(C)C)cc3)c(C#N)cc2C1,-9.71
19,O=C(c1cc2ccccc2o1)N1CCN(c2ccccc2Cl)CC1,-11.6
20,CC(=O)NCCCOc1ccc([N+](=O)[O-])cc1Cl,6.8
21,CC(=O)N1CCc2cc(S(=O)(=O)NC(C(=O)NCc3ccccc3)C(C)C)ccc21 (stereo not drawn),-20.9
22,Cc1ccccc1-c1nnc(SCC(=O)c2c(N)n(C3CC3)c(=O)[nH]c2=O)o1,7.7

row,SMILES,"hERG current change (%, negative = inhibition) at 10uM [%]"
1,COc1ccccc1-c1nc2ccccc2nc1-c1ccccc1,6.3
2,CN(c1ccc(C(=O)NC2CCCC2)cc1)S(=O)(=O)c1ccc(Cl)cc1,16.2
3,CCCCSc1nnc(-c2ccc(C)cc2)n1C,-33.7
4,CCCCn1c(SCC(=O)Nc2cc(C)on2)nc2ccccc2c1=O,2.03
5,Nc1nc(-c2cc3c(cc2Cl)OCCO3)cs1,6.72
6,Cc1ccc(SCCOCCN2CC(C)OC(C)C2)cc1.Cl (stereo not drawn),-12.4
7,COc1ccccc1CNC(=O)C1CCC1,-4.94
8,CN(Cc1ccccc1)CC(O)COc1ccc(CNCc2cccnc2)cc1 (stereo not drawn),1.13
9,CCOC(=O)Cc1csc(NC(=O)COc2ccc(C)cc2)n1,-3.63
10,O=C(c1ccccc1F)N1CCN(c2ccccc2F)CC1,-2.08
11,CCC(C)[C@H](NC(=O)Nc1cccc(Cl)c1)C(=O)O (stereo partly drawn),9.82
12,CC(C)(O)c1[nH]c2cc(C(F)(F)F)ccc2c1C(C)(C)O,11.1
13,Cn1c(=O)c2c(ncn2CC(=O)Nc2nc(-c3ccc(F)c(F)c3)cs2)n(C)c1=O,13.9
14,COc1ccc(/C=C\c2onc(C)c2S(=O)(=O)N2CCC(C(=O)NCCC(C)C)CC2)cc1,-7.26
15,COc1cc([N+](=O)[O-])ccc1NC(=O)NCC1CCN(Cc2ccc(Cl)cc2)CC1,-60.9
16,COc1ccc(CCNc2ccncn2)cc1.Cl,3.65
17,O=C(CSc1nnc(COc2ccc(Cl)cc2)o1)N1CCCC1,-13.5
18,CCC1CCc2c(sc3ncnc(N4CCOCC4)c23)C1 (stereo not drawn),-20.8
19,COc1ccc(/C=N/Nc2ncccc2[N+](=O)[O-])c(OC)c1,2.07
20,Cc1ccc(-c2nn3c(C)nnc3s2)cc1NC(=O)CSc1ccc(Cl)cc1,-14
21,CCOc1ccc(NC(=O)c2cccnc2Cl)c([N+](=O)[O-])c1,-9.98
22,C#CCOCCOCCOCCNc1nc(N2CCN(C(=O)[C@H]([C@@H](C)CC)n3cc([C@@H](N)CO)nn3)CC2)nc(N2CCN(C(=O)[C@H]([C@@H](C)CC)n3cc([C@@H](N)Cc4ccc(O)cc4)nn3)CC2)n1.Cl,4.48

row,SMILES,"hERG current change (%, negative = inhibition) at 10uM [%]"
1,CN1CCCCC1c1ccc(-c2cccnc2)nc1.Cl (stereo not drawn),0.0318
2,O=S(=O)(NCC1CCCO1)c1ccc(S(=O)(=O)N2CCc3ccccc3C2)cc1 (stereo not drawn),20.2
3,OC(CN1CCN(c2ccc(F)cc2)CC1)c1ccc(Cl)cc1 (stereo not drawn),-37.9
4,O=C1/C(=C\c2ccco2)SC(=S)N1c1ccccc1,-0.16
5,O=c1[nH]c(=O)c2nnc(N/N=C/c3ccccc3F)nc2[nH]1,7.2
6,C[C@H]1CC[C@]2(O[C@@H](CCO)C[C@H](O)[C@H]2O)O1,19.7
7,COc1nc(N(C)C)nc(N(C)c2cc(Cl)cc(Cl)c2)n1,2.99
8,COc1cc(NC(=S)NCC2CCCO2)c(OC)cc1Cl (stereo not drawn),5.01
9,O=C(NCCCN1CCC(Cc2ccccc2)CC1)C1CCN(S(=O)(=O)N2CCC3(CC2)OCCO3)CC1,-42.7
10,Nc1c(Cl)cc2c(c1Oc1ccccc1)C(=O)c1ccccc1C2=O,3.84
11,O=c1[nH]cnc2ccsc12,18.6
12,COCCNC(=O)COc1ccccc1Cl,1.56
13,O=C(NC1CCCCC1)c1cc(-c2cccs2)on1,-1.56
14,CCCc1nc(NCc2ccccn2)c2nnn(Cc3ccccc3F)c2n1,5.34
15,Cc1ccc(S(=O)(=O)N2CCOCC2)cc1C(=O)Nc1ccc2c(c1)OCCO2,3.14
16,O=C(CN1CCCC1)Nc1ccc([N+](=O)[O-])cc1Cl,-16.9
17,CC1=Nc2nc(N3CCCCCC3)c(C#N)c3c4c(nc(c23)N1)N(c1ccc2ccccc2c1)C(=O)C4.CN(C)C=O,14.2
18,O=C(COc1ccccc1F)c1ccc(O)cc1O,-13.8
19,Cc1cc(=O)oc2cc(OCC(=O)NCC3CCC(C(=O)O)CC3)ccc12 (stereo not drawn),22.8
20,Cc1cc(NC(=O)c2cccc(Cl)c2)n[nH]1,7.05
21,N#Cc1c(SCC(N)=O)nc2c(c1-c1ccncc1)CCCC2,-42.1
22,COc1ccc(CCN(C(=O)c2ccc(F)cc2)C2=CC3CCC(C2)N3C)cc1OC.Cl (stereo not drawn),-46.6

row,SMILES,"hERG current change (%, negative = inhibition) at 10uM [%]"
1,O=c1c2ccccc2nnn1CSc1ncnc2ccccc12,6.65
2,O=[N+]([O-])c1c(Nc2ccccc2)ccc2nonc12,-3.47
3,COc1ccc(CN(C)C(C)C(=O)Nc2ccc(S(=O)(=O)N3CCOCC3)cc2)c(OC)c1 (stereo not drawn),-27.5
4,COc1ccc(OC)c(N(CC(=O)Nc2cccc3ccccc23)S(C)(=O)=O)c1,0.254
5,C/C(=N\NC(=O)C1CC1c1ccccc1)c1ccc(C)s1 (stereo not drawn),-6.02
6,COc1ccccc1/C=N/NC(=O)c1cccc2ccccc12,12.8
7,CCOC(=O)/C(C#N)=c1/s/c(=C2\C=Cc3ccccc3N2CC)c(=O)n1CC,13.6
8,Cc1cc(C)cc(NC(=O)c2ccc(Cn3nc(C)c(Cl)c3C)o2)c1,12.1
9,CCC(=O)N(C)CCc1cc2c(c(OC)c1/C=N/NC(=O)c1ccncc1)OCO2,-6.56
10,O=C(/C=C/c1ccc(F)cc1)N1CC[C@@]2(O)CCCC[C@H]2C1,-5.89
11,c1ccc(-c2cc(N3CCOCC3)nc(-c3ccccc3)n2)cc1,-5.46
12,c1cnc2c(SCc3ccc(-c4nnco4)cc3)cccc2c1,1.45
13,O=C1CC(C2CCCO2)C(=O)N1Cc1ccccc1 (stereo not drawn),3.23
14,O=C(Cn1nc(-c2ccccc2)ccc1=O)Nc1ccc(N2CCN(C(=O)c3ccccc3)CC2)cc1,-37.8
15,O=C(c1cnc(N2CCN(c3ncccn3)CC2)c2ccccc12)N1CCN(c2ncccn2)CC1,-21.3
16,NC(=O)c1ccsc1NC(=O)COC(=O)c1cnccn1,2.13
17,O=C(CSc1ncn(-c2ccccc2)n1)Nc1nccs1,14.1
18,Cc1csc(NC(=O)c2cc([N+](=O)[O-])cc([N+](=O)[O-])c2)n1,-13.8
19,CCOC(=O)c1c(C)n(C)c2cc(-c3ccc(C)cc3)c(O)cc12,15.1
20,Cc1c(C)c2c(OCC(=O)NCC(O)c3ccccc3)cc3c(c2oc1=O)CCC(C)(C)O3 (stereo not drawn),9.68
21,Cc1nn(Cc2ccccc2)c(C)c1NC(=O)CSc1n[nH]c(C)c1[N+](=O)[O-],3.02

# Reference: publication PMC4336329 (PLoS ONE, 2015)
